“And” between values parts separate entries of the source, which are not always exact repeats. Equal entries are not always repeated. The list shows a part of the results. The main result of the screen is listed elsewhere. These columns were measured beside it and carry no call. Compounds called inactive in the main read-out are mostly missing here.

We go through 101 compounds from PubChem BioAssay AID1625 (Sanford-Burnham Center for Chemical Genomics, 2009).

The test is described as follows: up-regulation of insulin promoter-GFP reporter – imaging, high-content screening, mouse beta cells (AID 1625).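 Further: total cells summed across four imaged fields per well.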 To be noted: MIN6 insulin promoter-GFP reporter, measured here: cytotoxicity, nuclei count, at 5 µM.
With `CCC(c1nnnn1C(C)(C)C)N(Cc1ccco1)Cc1cc2cccc(C)c2[nH]c1=O` (stereo unspecified), the cell count was 455 cells. The value for `CSc1c(C#N)c(N)nc2sc(C(=O)c3ccc(Cl)c(Cl)c3)c(N)c12` was 870 cells; that for `COC(=O)c1oc2c(c1C)C1(CCC2)SCCS1` was 379 cells; that for `CCCCC1=CC2=C(c3ccco3)C(=O)C(C)(OC(=O)c3ccc(OC)cc3)C(=O)C2=CN1CC(C)C` (stereo unspecified) was 610 cells. The value for `CC(=O)c1c(C)[nH]c(C(=O)NCc2ccccn2)c1C` was 425 cells.

On to `CC#CC[N+](C)(C)CCCCCCCCCC`, for which the cell count stood at 295 cells. The figure for `CCCNC(=O)N1CCC(C(=O)c2ccc(Cl)cc2)CC1` is 1420 cells; for `CCN1CC=C2C(C#N)=C(N)C(C#N)(C#N)[C@H](c3cccc(OC)c3OC)[C@H]2C1` it is 1090 cells. The figure for `NC(=O)c1cc2ccc(O)cc2oc1=NCc1ccccc1` is 1130 cells; for `Nc1c(C(=O)c2ccc(Cl)cc2)sc2nsc(SCCN3CCOCC3)c12` it is 1030 cells.

Regarding `COCc1nnc(NC(=O)c2ccc(Cl)cc2[N+](=O)[O-])s1`, the cell count came out at 484 cells.

For `O=C(N/N=C/c1ccccn1)c1cc(-c2ccc(Br)cc2)nc2ccccc12`, the cell count came out at 488 cells. `O=C1C=CC(O)(c2cc(=O)c3c(O)cc(O)cc3o2)C=C1` displayed a cell count of 237 cells. The value for `C=CCN1C(=O)/C(=C/c2ccc(N(C)C)cc2)S/C1=N\c1nnc(CC)s1` was 835 cells; that for `N#Cc1cccc(NC(=O)CSc2ccc3c4c(cccc24)C(=O)c2ccccc2-3)c1` was 914 cells. The value for `CCOC(=O)N1CCC(NC(=O)C2CCCN(Cc3nc(-c4cccc(Cl)c4)oc3C)C2)CC1` (stereo unspecified) was 344 cells. The value for `C(=N\Nc1nc2ccccc2[nH]1)/c1ccccn1` was 487 cells; that for `COc1ccc(-c2cn(-c3ccccc3)c3[n+]2CCS3)cc1` was 347 cells and 304 cells; that for `N#C/C(=C/c1ccc(N2CCOCC2)o1)c1ccc(Br)cc1` was 1120 cells. Compound `CC(C)C1S/C(=N/N=C/c2ccco2)NC1=O` (stereo unspecified) came in with a cell count of 1250 cells. The figure for `CCCc1nc2oc(C(=O)c3ccccc3)c(N)c2c2c1COC(C)(C)C2` is 293 cells.

For the compound `CC(C)CC(=O)NC1(C(F)(F)F)C(=O)N(CC(C)C)C2=C1C(=O)CC(C)(C)C2` (stereo unspecified), the cell count came to 296 cells. The figure for `O=C(Nc1ccc(C2CCCCC2)cc1)C1CCCN(c2ncccn2)C1` (stereo unspecified) is 1080 cells; for `O=[N+]([O-])c1ccc(-c2ccc(/C=N/Nc3nc(N4CCCCC4)nc(N4CCCCC4)n3)o2)cc1` it is 1270 cells. The figure for `CC#CC[N+](C)(C)CCCCCCCCCCCC` is 208 cells; for `CC(C)N1CCc2c(sc(NC(=O)c3ccc(S(=O)(=O)N4CCc5ccccc54)cc3)c2C(N)=O)C1` it is 1030 cells. The figure for `O=C(c1cc(NC(=O)C23CC4CC(CC(C4)C2)C3)cc(NC(=O)C23CC4CC(CC(C4)C2)C3)c1)N1CCCCC1` is 383 cells; for `CCCSc1nc(O)c(C2OC(=O)c3c2ccc(OC)c3OC)c(=O)n1-c1ccccc1` (stereo unspecified) it is 328 cells; for `CC(=O)Nc1sc(/C(C#N)=C/c2ccc(Cl)c(Cl)c2)nc1-c1ccc(C)cc1` it is 1310 cells. `CC(C)NC(=O)/C(C#N)=C/c1ccc(N(C)C)o1` yielded a cell count of 987 cells. The figure for `COc1cc(/C=C(\C#N)c2nc3ccccc3o2)ccc1O` is 1000 cells; for `COc1ccc(OCCn2cc(/C(N)=N/O)c3ccccc32)cc1` it is 1370 cells. The value for `CC(=O)c1cc(NC(=O)c2ccc(Cl)cc2)c(=O)oc1/C=C/N(C)C` was 1990 cells; that for `Nc1nonc1C(=O)NCCNCc1cc(Br)ccc1OCc1ccc(F)cc1` was 415 cells. The value for `COc1ccc(N(CCN2C(=O)c3ccccc3C2=O)C(=O)c2cccc([N+](=O)[O-])c2)cc1` was 1440 cells; that for `CCC(C)(C)c1ccc(OCCCC[n+]2ccc(C)cc2)c(C(C)(C)CC)c1` was 224 cells; that for `NC(=O)CC[C@@H]1NC(=O)[C@@H]2CCCN2C(=O)c2cc([N+](=O)[O-])cc(F)c2NCCC[C@@H](C(N)=O)NC1=O` was 455 cells. The compound `Cc1cccn2c(=O)c(/C=C3\SC(=S)N(CC(C)C)C3=O)c(NCCCOC(C)C)nc12` returned a cell count of 877 cells.

As to `Oc1c(CN2CCCCC2)cc(COCc2ccccc2)c2cccnc12`, the cell count is 460 cells.

`Cc1cc(NC(=O)/C(C#N)=C/c2ccc(-c3ccc(SC(F)F)cc3)o2)n(-c2ccccc2)n1` showed a cell count of 1460 cells.

On to `Cc1ccc(C(=O)NCCn2c(N)c(C#N)c3nc4ccccc4nc32)cc1`, for which the cell count worked out at 1250 cells. In turn, `Cc1nnc(NC(=O)c2sc3nc(-c4cccs4)cc(C(F)(F)F)c3c2N)s1` had a cell count of 1710 cells.

In turn, `COc1ccc(OC)c(NC(=O)C2CC(=O)N(c3ccccc3)C2)c1` (stereo unspecified) showed a cell count of 327 cells. The figure for `Cc1cc(C)cc(N(CC(=O)N2CCn3c2nc2ccccc23)S(=O)(=O)c2c(C)noc2C)c1` is 468 cells. The figure for `COc1cc(N=Nc2cccc(S(N)(=O)=O)c2)c2ccccc2c1N` is 904 cells; for `CC(=O)Nc1sc2c(c1-c1nc3ccccc3s1)CCN(C(C)C)C2` it is 479 cells; for `CC(C)CN=C(NS(=O)(=O)c1ccccc1)C(Cl)(Cl)Cl` it is 464 cells.

Compound `CC(=O)C1=C(c2ccc(Br)cc2)C(=O)c2ccccc2C1=O` returned a cell count of 497 cells. In turn, `Cc1cc(C)cc(N(CC(=O)N2CC=C(c3ccccc3)CC2)S(=O)(=O)c2c(C)noc2C)c1` registered a cell count of 404 cells. The value for `CCCCCCc1cc2cc(-c3nnc(-c4cc(OC)c(OC)c(OC)c4)o3)c(=O)oc2cc1O` was 632 cells; that for `O=C(CN1CCN(Cc2ccccc2)C1=O)NCCCN1CCOCC1` was 472 cells. The figure for `C(=C\c1ccccc1)/CN1CCN(c2ncnc3c2oc2ccccc23)CC1` is 280 cells; for `O=C(CCSc1nnc(-c2ccccc2)o1)N1CCOCC1` it is 499 cells; for `Cc1cc(C)n(-c2ccc(OCC(=O)O)nn2)n1` it is 978 cells. The value for `COC(=O)c1[nH]c2cccc(Cl)c2c1NC(=O)CN(C)C1CCCCC1` was 950 cells; that for `c1ccc2c(c1)CCN(c1ncnc3c1[nH]c1ccccc13)C2` was 489 cells.

As to `CC1(C)CC(N2CCN(c3ccccc3)CC2)=CC(=[N+]2CCCC2)C1`, the cell count was determined as 230 cells. The value for `COc1nnc(-c2ccc(N3CCCCC3)c(NC(=O)C3CCCCC3)c2)c2ccccc12` was 469 cells. The figure for `N=c1n(CC(=O)c2ccc([N+](=O)[O-])cc2)c2ccccc2n1Cc1ccc(Cl)cc1` is 478 cells; for `CCc1nc2c(n1O)CCc1nonc1-2` it is 493 cells; for `CCOC(=O)CC1C(=O)NCCN1c1nc2ccc(C)cn2c(=O)c1/C=C1\SC(=S)N(CC(C)C)C1=O` (stereo unspecified) it is 1100 cells. The figure for `COc1nc(-c2ccccc2)c2c(c1C#N)CC(C)(C)OC2` is 442 cells.

For `COCCN1C(=O)/C(=C/c2ccc(N3CCCC3)cc2)SC1=S`, the cell count worked out at 1520 cells.

Compound `CCCc1cc(=O)[nH]c(SCC(=O)NCCCC(=O)OCC)n1` came in with a cell count of 1050 cells.

In the case of `N#C/C(=C/c1ccc(N2CCCCC2)o1)C(=O)Nc1ccc(Cl)cc1`, the cell count was found to be 1600 cells.

In turn, `CCCN1C(=O)/C(=C/c2c(N3CCNC(=O)C3CC(=O)OC)nc3c(C)cccn3c2=O)SC1=S` (stereo unspecified) showed a cell count of 1290 cells. The figure for `CC[n+]1c(/C=C2\C=C(C)CC(C)(C)C2)sc2ccccc21` is 260 cells; for `CCOc1ccc(/C=N/OCC(=O)NC(c2ccccc2)c2ccccc2)cc1` it is 380 cells. The value for `COCCn1c(SCC(=O)N2CCc3ccccc32)nc2c(c1=O)SC(C)C2` (stereo unspecified) was 465 cells. `O=[N+]([O-])c1ccc(N/N=C/c2c[nH]c3ccccc23)cc1`: the cell count was determined as 1200 cells. For the compound `CCN(CC)S(=O)(=O)c1cc(NC(=O)Cn2ncc(Cl)c(Cl)c2=O)ccc1C`, the cell count was determined as 335 cells.

`COc1cc2cc(C)c3nnc(SCC(=O)Nc4cc(C)on4)n3c2cc1OC` came in with a cell count of 1130 cells. The value for `CCN(CC)c1ccc2cc(-c3nnc(-c4ccncc4)o3)c(=O)oc2c1` was 1300 cells. The figure for `COc1cccc(NC(=O)N2CCN(c3nnnn3-c3ccccc3)CC2)c1` is 1200 cells.

The compound `N#Cc1c(C(F)(F)F)cc(-c2ccccc2)nc1SCc1nc(N)nc(N2CCOCC2)n1` displayed a cell count of 1280 cells. The figure for `CC(=O)c1c(C)n([O-])c2cc(F)c(F)cc2[n+]1=O` is 478 cells; for `CCCN(CCC)c1ccc(/C=C/c2ccc3cc(OCC)ccc3n2)cc1` it is 943 cells. The value for `CCN(CC)c1ccc2cc(-c3nnc(-c4ccccc4)o3)c(=O)oc2c1` was 1050 cells; that for `COc1cccc(CNCCc2c[nH]c3ccccc23)c1OCc1ccccc1F` was 327 cells; that for `CN(C)CCn1c2ccccc2c2nc3ccc([N+](=O)[O-])cc3cc21` was 486 cells. The figure for `O=c1[nH]c(/C=C/c2ccccc2OC(F)F)nc2c1cnn2-c1ccccc1` is 1150 cells; for `CC(=O)Nc1ccccc1OCC(=O)c1cc(C)n(Cc2cccs2)c1C` it is 338 cells; for `COc1ccc(C(=O)/C=C/C(=O)N(CC(=O)NC2CCCCC2)Cc2ccccc2)c(O)c1` it is 384 cells. `Oc1ccccc1N=Nc1ccccc1O` returned a cell count of 497 cells. The figure for `COc1ccc(OCC(=O)Nc2ccc(S(=O)(=O)Nc3cc(C)nc(C)n3)cc2)cc1` is 779 cells; for `CCn1c(/C=C/N(C)c2ccccc2)[n+](CC)c2ccc(Cl)cc21` it is 390 cells. The figure for `N#Cc1ccc(-c2ccc(Cl)cc2)nc1SCC(=O)c1cccc(Cl)c1` is 826 cells. The figure for `Cc1cnc(C(=O)Nc2cccc3cccnc23)cn1` is 444 cells. For the compound `CCOCCn1c(CN2CCC(Cc3ccccc3)CC2)nc2c1c(=O)n(C)c(=O)n2C`, the cell count is 413 cells.

`N#C/C(=C/c1ccc(-c2cc(C(=O)O)cc(C(=O)O)c2)o1)c1nc2ccccc2s1`: the cell count is 1120 cells. The value for `CCS(=O)(=O)N1Cc2ccccc2CC1C(=O)OCC(=O)Nc1ccc(C)cc1` (stereo unspecified) was 1410 cells. The figure for `CNc1ccc(Br)cc(C(=O)/C=C/c2cc(OC)ccc2OC)c1=O` is 378 cells; for `Nc1cccc2c1C(=O)N(C(=O)c1cccc(S(=O)(=O)N3CCCC3)c1)C2=O` it is 875 cells; for `O=C1C=C(Nc2ccc(O)cc2)CC(c2ccco2)C1` (stereo unspecified) it is 1040 cells. `Cn1nc(C(C)(C)C)cc1C(=O)NCc1ccc(N2CCCC2=O)cc1` showed a cell count of 405 cells. The value for `COc1ccc(-n2c(-c3ccc(Br)cc3)c[n+]3c2CCC3)cc1` was 337 cells. For the compound `CN(C)c1ccc(/C=C/C(O)=C2/C(=O)N(C)C3(C)CC2c2ccccc2O3)cc1` (stereo unspecified), the cell count was 815 cells. The value for `CC(=O)Nc1ccc(N2CCc3c(C)c(C#N)c4nc5ccccc5n4c32)cc1` was 1580 cells; that for `CN(C)C(=O)C12CCC(C)(c3nc4ccccc4nc31)C2(C)C` (stereo unspecified) was 969 cells. The figure for `Cc1ccc(C)c(NC(=O)C(C)CC2COCCO2)c1` (stereo unspecified) is 1460 cells; for `COc1ccccc1N1CCN(C(=O)CSc2nnc3n2C(C)(C)Cc2ccccc2-3)CC1` it is 496 cells.
